# Where “and” joins values, the source holds several entries; their conditions need not be identical. Equal entries are not always repeated.
# Columns and labels:
# [1] = test system: P. aeruginosa PAO1p cells; assay: Antibacterial activity of unmodified and modified phiKZgp144 and ELgp188 (colony count after 1 hour); type: cell-based, Pseudomonas aeruginosa; conditions: for reduction of cell numbers compared to the negative control (in words): 100 μg/ml, student's t-test, α=0.05; for reduction of cell numbers compared to the negative control (in words) / antibacterial activity as relative inactivation (%) / antibacterial activity in logarithmic units (log10N0/Ni): 1 hour; for antibacterial activity as relative inactivation (%) / antibacterial activity in logarithmic units (log10N0/Ni): exponentially growing cells, 100 μg/ml undialyzed protein, room temperature
# P. aeruginosa PAO1p [2] = assay: Antibacterial activity of PSP3gp10 and PKPSP3gp10 with and without EDTA (30 minutes, colony count); type: cell-based, Pseudomonas aeruginosa; conditions: for relative inactivation in logarithmic units (log10N0/Ni): 30 minutes; for interaction of EDTA with the endolysin (in words): PAO1p
# [3] = test system: P. aeruginosa PAO1p cells; assay: Antibacterial activity of phiKZgp144 variants with different polycationic peptide stretches (colony count after 1 hour); conditions: 100 μg/ml undialyzed protein, room temperature
# P. aeruginosa PAO1p [4] = assay: Antibacterial activity of P2gp09 and PKP2gp09 with and without EDTA (30 minutes, colony count); type: cell-based, Pseudomonas aeruginosa; conditions: for relative inactivation in logarithmic units (log10N0/Ni): 30 minutes
# [5] = 1.315 μM endolysin + 0.5 mM EDTA
molecule,measurement,setting,value
"ELgp188: SEQ ID NO: 2: unmodified modular endolysin originating from Pseudomonas aeruginosa phage EL (protein, ELgp188) MNFRTKNGYRDLQALVKELGLYTGQIDGVWGKGTSSSTETLLRGYAEVVGKNTGGIGLPTTSDASGYNVITALQRNLAFLGLYSLTVDGIWGNGTLSGLDKAFEVYKERYRTPTYDIAWSGKVSPAFTAKVKDWCGVHVPNHRAPHWLMACMAFETGQTFSPSIKNAAGSEAYGLIQFMSPAANDLNVPLSVIRSMDQLTQLDLVFKYFEMWMKRGKRYTQLEDFYLTIFHPASVGKKADEVLFLQGSKAYLQNKGFDVDKDGKITLGEISSTLYTTYYKGLLPENRHVISY",reduction of cell numbers compared to the negative control (in words),[1],do not reduce cell numbers significantly
same,antibacterial activity as relative inactivation (%),[1],10 ± 13%
same,antibacterial activity in logarithmic units (log10N0/Ni),[1],0.05 ± 0.06 log
"POLY-gp144: SEQ ID NO: 35: phiKZgp144 (SEQ ID NO: 1) with N-terminal peptide stretch KRKKRKKRK (SEQ ID NO: 11) (protein, POLY-gp144) MGSKRKKRKKRKKVLRKGDRGDEVCQLQTLLNLCGYDVGKPDGIFGNNTFNQVVKFQKDNCLDSDGIVGKNTWAELFSKYSPPIPYKTIPMPTANKSRAAATPVMNAVENATGVRSQLLLTFASIESAFDYEIKAKTSSATGWFQFLTGTWKTMIENYGMKYGVLTDPTGALRKDPRISALMGAELIKENMNILRPVLKREPTDTDLYLAHFFGPGAARRFLTTGQNELAATHFPKEAQANPSIFYNKDGSPKTIQEVYNLMDGKVAAHRK",reduction of cell numbers compared to the negative control (in words),[1],significant reduction
same,antibacterial activity as relative inactivation (%),[1],99.85±0.09%
same,antibacterial activity in logarithmic units (log10N0/Ni),[1],2.9±0.3 log
same,inactivation level in log units,[1]; protein dialyzed to 50 mM KH2PO4/K2HPO4 pH 7 instead of undialyzed,3.9±0.2 log units
"(POLY)^2-gp144: SEQ ID NO: 36: phiKZgp144 with N-terminal peptide stretch SEQ ID NO: 21 (protein, (POLY)2-gp144) MGSKRKKRKKRKRSKRKKRKKRKKVLRKGDRGDEVCQLQTLLNLCGYDVGKPDGIFGNNTFNQVVKFQKDNCLDSDGIVGKNTWAELFSKYSPPIPYKTIPMPTANKSRAAATPVMNAVENATGVRSQLLLTFASIESAFDYEIKAKTSSATGWFQFLTGTWKTMIENYGMKYGVLTDPTGALRKDPRISALMGAELIKENMNILRPVLKREPTDTDLYLAHFFGPGAARRFLTTGQNELAATHFPKEAQANPSIFYNKDGSPKTIQEVYNLMDGKVAAHRK",reduction of cell numbers compared to the negative control (in words),[1],significant reduction
same,antibacterial activity in logarithmic units (log10N0/Ni),[1],≤ 3.7±0.3 log and 3.7 ± 0.3 log
"POLY-gp188: SEQ ID NO: 39: ELgp188 (SEQ ID NO: 2) with N-terminal peptide stretch KRKKRKKRK (SEQ ID NO: 11) (protein, POLY-gp188) MGSKRKKRKKRKNFRTKNGYRDLQALVKELGLYTGQIDGVWGKGTSSSTETLLRGYAEVVGKNTGGIGLPTTSDASGYNVITALQRNLAFLGLYSLTVDGIWGNGTLSGLDKAFEVYKERYRTPTYDIAWSGKVSPAFTAKVKDWCGVHVPNHRAPHWLMACMAFETGQTFSPSIKNAAGSEAYGLIQFMSPAANDLNVPLSVIRSMDQLTQLDLVFKYFEMWMKRGKRYTQLEDFYLTIFHPASVGKKADEVLFLQGSKAYLQNKGFDVDKDGKITLGEISSTLYTTYYKGLLPENRHVISY",reduction of cell numbers compared to the negative control (in words),[1],significant reduction
same,antibacterial activity as relative inactivation (%),[1],98.0±0.2%
same,antibacterial activity in logarithmic units (log10N0/Ni),[1],1.7 ± 0.1 log
"(POLY)^2-gp188: SEQ ID NO: 40: ELgp188 with N-terminal peptide stretch SEQ ID NO: 21 (protein, (POLY)2-gp188) MGSKRKKRKKRKRSKRKKRKKRKNFRTKNGYRDLQALVKELGLYTGQIDGVWGKGTSSSTETLLRGYAEVVGKNTGGIGLPTTSDASGYNVITALQRNLAFLGLYSLTVDGIWGNGTLSGLDKAFEVYKERYRTPTYDIAWSGKVSPAFTAKVKDWCGVHVPNHRAPHWLMACMAFETGQTFSPSIKNAAGSEAYGLIQFMSPAANDLNVPLSVIRSMDQLTQLDLVFKYFEMWMKRGKRYTQLEDFYLTIFHPASVGKKADEVLFLQGSKAYLQNKGFDVDKDGKITLGEISSTLYTTYYKGLLPENRHVISY",reduction of cell numbers compared to the negative control (in words),[1],significant reduction
same,antibacterial activity as relative inactivation (%),[1],98.9 ± 0.4%
same,antibacterial activity in logarithmic units (log10N0/Ni),[1],2.0 ± 0.2 log
"PSP3gp10: SEQ ID NO: 8: unmodified globular endolysin with 165 amino acid residues originating from Salmonella typhimurium phage PSP3 (protein, PSP3gp10) MPVINTHQNIAAFLDMLAYSEGTANHPLTKNRGYDVIVTGFDGSPEIFTDYSDHPFAHGRPPKVFNRRGEKSTASGRYQQLYIFWPHYKKQLALPDFSPLSQDKLAIQLIRERGAIDDIRAGRIERAVSRCRNIWASLPGAGYGQREHSLEKLVTVWRTAGGVMA",relative inactivation in logarithmic units (log10N0/Ni),P. aeruginosa PAO1p [2]; [5],3.552 +/− 0.536 logarithmic units
same,relative inactivation in logarithmic units (log10N0/Ni),"P. aeruginosa PAO1p [2]; 1.315 μM endolysin, no EDTA",0.383 +/− 0.015 logarithmic units
same,interaction of EDTA with the endolysin (in words),P. aeruginosa PAO1p [2]; [5],synergistically
"PKPSP3gp10: SEQ ID NO: 53: PSP3gp10 (SEQ ID NO: 8) with N-terminal peptide stretch KRKKRKKRK (SEQ ID NO: 11) (protein, PKPSP3gp10) MGSKRKKRKKRKPVINTHQNIAAFLDMLAYSEGTANHPLTKNRGYDVIVTGFDGSPEIFTDYSDHPFAHGRPPKVFNRRGEKSTASGRYQQLYIFWPHYKKQLALPDFSPLSQDKLAIQLIRERGAIDDIRAGRIERAVSRCRNIWASLPGAGYGQREHSLEKLVTVWRTAGGVMA",relative inactivation in logarithmic units (log10N0/Ni),P. aeruginosa PAO1p [2]; [5],>4.146 logarithmic units
same,relative inactivation in logarithmic units (log10N0/Ni),"P. aeruginosa PAO1p [2]; 1.315 μM endolysin, no EDTA",0.344 +/− 0.163 logarithmic units
same,interaction of EDTA with the endolysin (in words),P. aeruginosa PAO1p [2]; [5],synergistically
"KRK_6_pET32b: SEQ ID NO: 44: phiKZgp144 with N-terminal peptide stretch KRKKRK (SEQ ID NO: 10) (protein, KRK_6_pET32b) AMGSKRKKRKKVLRKGDRGDEVCQLQTLLNLCGYDVGKPDGIFGNNTFNQVVKFQKDNCLDSDGIVGKNTWAELFSKYSPPIPYKTIPMPTANKSRAAATPVMNAVENATGVRSQLLLTFASIESAFDYEIKAKTSSATGWFQFLTGTWKTMIENYGMKYGVLTDPTGALRKDPRISALMGAELIKENMNILRPVLKREPTDTDLYLAHFFGPGAARRFLTTGQNELAATHFPKEAQANPSIFYNKDGSPKTIQEVYNLMDGKVAAHRK",Reduction [%] (relative inactivation),[3],99.9%
"R9_pET32b: SEQ ID NO: 47: phiKZgp144 with N-terminal peptide stretch RRRRRRRRR (SEQ ID NO: 12) (protein, R9_pET32b) AMGSRRRRRRRRRKVLRKGDRGDEVCQLQTLLNLCGYDVGKPDGIFGNNTFNQVVKFQKDNCLDSDGIVGKNTWAELFSKYSPPIPYKTIPMPTANKSRAAATPVMNAVENATGVRSQLLLTFASIESAFDYEIKAKTSSATGWFQFLTGTWKTMIENYGMKYGVLTDPTGALRKDPRISALMGAELIKENMNILRPVLKREPTDTDLYLAHFFGPGAARRFLTTGQNELAATHFPKEAQANPSIFYNKDGSPKTIQEVYNLMDGKVAAHRK",Reduction [%] (relative inactivation),[3],99%
"K8_pET32b: SEQ ID NO: 48: phiKZgp144 with N-terminal peptide stretch KKKKKKKK (SEQ ID NO: 13) (protein, K8_pET32b) AMGSKKKKKKKKKVLRKGDRGDEVCQLQTLLNLCGYDVGKPDGIFGNNTFNQVVKFQKDNCLDSDGIVGKNTWAELFSKYSPPIPYKTIPMPTANKSRAAATPVMNAVENATGVRSQLLLTFASIESAFDYEIKAKTSSATGWFQFLTGTWKTMIENYGMKYGVLTDPTGALRKDPRISALMGAELIKENMNILRPVLKREPTDTDLYLAHFFGPGAARRFLTTGQNELAATHFPKEAQANPSIFYNKDGSPKTIQEVYNLMDGKVAAHRK",Reduction [%] (relative inactivation),[3],99%
"P2gp09: SEQ ID NO: 9: unmodified globular endolysin of 165 amino acid residues originating from Escherichia coli phage P2 (protein, P2gp09) MPVINTHQNIAAFLDMLAVSEGTANHPLTKNRGYDVIVTGLDGKPEIFTDYSDHPFAHGRPAKVFNRRGEKSTASGRYQQLYLFWPHYRKQLALPDFSPLSQDRLAIQLIRERGALDDIRAGRIERAISRCRNIWASLPGAGYGQREHSLEKLVTVWRTAGGVPA",relative inactivation in logarithmic units (log10N0/Ni),P. aeruginosa PAO1p [4]; [5],2.840 logarithmic units
same,relative inactivation in logarithmic units (log10N0/Ni),"P. aeruginosa PAO1p [4]; 1.315 μM endolysin, no EDTA",0.374 logarithmic units
"PKP2gp09: SEQ ID NO: 57: P2gp09 (SEQ ID NO: 9) with N-terminal peptide stretch KRKKRKKRK (SEQ ID NO: 11) (protein, PKP2gp09) MGSKRKKRKKRKPVINTHQNIAAFLDMLAVSEGTANHPLTKNRGYDVIVTGLDGKPEIFTDYSDHPFAHGRPAKVFNRRGEKSTASGRYQQLYLFWPHYRKQLALPDFSPLSQDRLAIQLIRERGALDDIRAGRIERAISRCRNIWASLPGAGYGQREHSLEKLVTVWRTAGGVPA","Δ, difference of activity between P2gp09 and PKP2gp09 samples",P. aeruginosa PAO1p [4]; 1.315 μM + 0.5 mM EDTA,0.332 logarithmic units
same,relative inactivation in logarithmic units (log10N0/Ni),P. aeruginosa PAO1p [4]; [5],3.172 +/− 0.056 logarithmic units
same,relative inactivation in logarithmic units (log10N0/Ni),"P. aeruginosa PAO1p [4]; 1.315 μM endolysin, no EDTA",0.326 +/− 0.069 logarithmic units
same,"Δ, difference of activity between P2gp09 and PKP2gp09 samples","P. aeruginosa PAO1p [4]; 1.315 μM, no EDTA",−0.038 logarithmic units

# — patent publication US9809808B2, “Antimicrobial agents” (KATHOLIEKE UNIVERSITEIT LEUVEN K.U. LEUVEN R&D, priority 2008, dated 2017)
